Laboratory results as given in the RNAGym collection of RNA variant scans (doi:10.1093/nar/gkz1192).
Read counts are not given, so values of variants with three or more changes are uncertain.

B1: CPEB3 Ribozyme (parent)
chain: UAACAGGGGGCCACAGCAGAAGCGUUCACGUCGCAGCCCCUGUCAGAUUCUGGUGAAUCUGCGAAUUCUGCUGUAUAUCUC

Variants of: B1
Experiment: self-cleavage, relative activity (ratio to wild type); higher = more cleavage; in vitro, sequencing
How it was run: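 For each CPEB3 ribozyme variant, relative activity is its cleaved/total read fraction divided by the unmutated ribozyme's. Barcoded error-prone PCR libraries were transcribed by T7 RNA polymerase (5 hours, 37°C) and held in DNase I for 15 min before an EDTA stop, with cleavage occurring throughout. Template-switching reverse transcription and Illumina sequencing were used to read the RNAs. A 5-read minimum applied, and results are the mean of three batches.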

Row | Variant | self-cleavage
1 | UAACAGAGGGCCACAGCAGAAGCAUCCACGUCGCGGCCCCUGUCGGAUCCUGGUGAAUCUGCGAAUUCUGCCGUAUAUCUC | 0.15
2 | UAACAGAGGGCCACAGCAGAAGCGUUCACGUCGCAGCCCCUGCCAGAUUCUGGUGAAUCUGCGAAUUCUGCUGGAUAUCAC | 0.21
3 | UAACAGAGGGCCACAGCAGAAGCGUUCACGUCGCAGACCCUGUCAGAUUCUGGUGAAUCGGCGAAUUCUGCUGUAUAUCUC | 0.22
4 | UAACAGAGGGCCACAGCAGAAGCGUUCACGCCGCAGCCCCUGGCAGAUUCUGGUGGAUCUGCGAAUUCUGCUGUGUAUCUC | 0.06
5 | UAACAGAGGGCCACAGCAGAAGCGCUCACGUCACAGCCCUCGUCAGAUUCUGGUGAAUCUGCGAAUCCUGCUGUAUAUCUC | 0.06
6 | UAACAGAGGGCCAAAGCAGAAGCGUUCACGGCGCAGCCCCUGCCAGAUUCUGGUGAAUCUGCGGAUUCUGCUGUAUACCUC | 0.06
7 | UAACAGAUGGCCACAGCAGAAGCGUUCACGUCGCAGCCCCUGUCAGGUUCUGGUGAGUCUGCGAAUUCUGCUGUAUAUCUC | 0.09
8 | UAACAGAGGGCCACAGCAGAAGCGCUCACGUCGCAGCCCCUGUCUGAUUCUGGUGAAUCUGCGAAUUCUGCUGUAUAUCUC | 0.05
9 | UAACAGAGGACCACAGCAGUAGCGUUCACGUCGCAGCCCCUGUCAGAUUCUGGUGAAUCUGCGAAAUCUGCUGUAUAUCUC | 0.15
10 | UAACAGAGGACCACAGCAGAAACGUUCACGUCGCAGCCCCUGUCAGAUUCUGGUGAAUCUGCGAAUUCUGCCGUAGAUCUC | 0.15
11 | UAACAGAGGGCCACAGCAGAAGCGUCCACGUCGCUGCCCCUGUCGGAUUCUGGUGAAUCUGCGAAUUCUGCUGUAUACCUC | 0.04
12 | UAACAGAGGGCCACAGCAGAAGCGUUCACGUCGCAGCCCCUGUCAGACACUGGCGAAUCUGCGUAUUCCGCUGUAUAUCUC | 0.04
13 | UAACAGAGGGCCACAGCAGAAGCGUCCACGUCGCAGCCCCAGUCAGAUUCUGGUGAAUCUGCGGAUUCUGCUGUAUAUCUC | 0.17
14 | UAACAGAGGGCCACAGCAGAAGCGCUCACGUCGCAGCCCCUGUCAGAUUCUGGUGUAUCUGCGAAUUCUCCUGUAUAUCUC | 0.17
15 | UAACAGAGGGCCACAGCAGAAGCGCUCACGUCGCAGCCCCUGGCAGAUUCUGGUGAAUCUGCGAAUUCUGCUGUAUAUCAC | 0.06
16 | UAACAGAGGGCCACAGCAGAAGCGUUCACGUUGCAGCGCCUGUCUGAUCCAGGUGAGUCUGCGAAUUCUGCUGUAUAUCUC | 0.03
17 | UAACAGAGGGCCACAGCAGAAGCGUUCACGUCGCAGCCCCUGUCAGAUUCUAGUGAAUCUGCGAGUUCUGCUGUAUAUCCC | 0.06

Row | Variant | self-cleavage
18 | UAACAGAGGGCCACAGCAGAAGAGUGCACGUCGCAGCCCCUGUCAGAAUCAGGUGAAUCUGCGAAUACUACUGUAUAUCUC | 0.13
19 | UAACAGAGGGCCACAGCAGAAGCGUUCACGUCGCAGCCCCUGACAGAUUCUGGUGAAUCUGCGAAUUCUGCUGAAUAUCCU | 0.44
20 | UAACAGAGUGCCACAGCAGAAGCGUUCACGUCGCAGCCCCUGUCAGAUUCUGGAGAAUCUGCGAAUUCUGCUGUAUAUCUC | 0.43
21 | UAACAGAGGGCCACAGCAGAAGCGUUCACGUCGAAGCCCCUGUCAGAUUCUGGUGAAUCUGCGAAUUCUGCUGCAUAUCUC | 0.18
22 | UAACAGAGGGCCACAGCAGAAGCAUUCACGUCGCAGCCCUUGUCAGAUUCUGGUGAAUCUGUGAAUUCUGCUGUAUAUCUC | 0.06
23 | UAACAGAGGGCCACAGCAGAAGCGUUCACGUCGCAGCCCCAGUCAGAUUCUGGUGAGUCUGCGGACUCUGCUGUAUAUCUC | 0.15
24 | UAACAGAGGGCCACAGCAGAAGCGUUCACGUCGUAGCCCCUGUCAGAUUCUGGUGAAUCUGCGAAUUCUACUGUAUAUCUC | 0.06
25 | UAACAGAGGACCACAGCAGUAGCGUUCACGUCCCAGCCCCUGUCAGAUUCUGGUGAAUCUGCGAAUUCUGCUGUAUAUCUC | 0.12
26 | UAACAGAGGGCCACAGCAGAAGCGUUCACGUCGUAGCCCCUGUCAGAUUCUGUCGAAUCUGCGAAUUCUGCAGUAUAUCUC | 0.05
27 | UAACAGAGGGCCACAGCAGAAGCGUUCACGUCGCAGCCCCUGACAGAUUCUGGAGAAUCUGCGAAUUCUGCUGUAUAUCUC | 0.1
28 | UAACAGAGGGCCACAGCAGAAGCGUUCACGUCGCAGCCCCUGACAGAUUCUGGUGAAUCUGCGACUUCUGCUGUAUAUCCC | 0.23
29 | UAACAGAGGGCCACAGCAGAAGUGUACACGUCGUAGCCCCAGUCAGAUACUGGUGAAUCUGCGAAUUCUGCUGUAUAUCUC | 0.04
30 | UAACAGAGGGCCACAGCAGAAGCGUACUCGUCGCAGCCCCUGACGGAUUCUGGUGAAUCUGCGAAUUCUGCUGUAUAUCUC | 0.08
31 | UAACAGAGGGCCACAGCAGAAGCGUCCACGUCGCAGCUCCUGUCAGACUCUGGUGAAUGUGCGAAUUCUGCUGUAAAUCUC | 0.03
32 | UAACAGAGGGCCACAGCAGAAUCGUUCACGUCGCAGCCCCUGUCAGAUUCUGAUGAAUCUGCGAAUUCUGCUGUAAAUCUC | 0.05
33 | UAACAGAGGGCCACAGCAGAAGCGUUCACGUCGCAGCCCCUGCCAGAUUCUGGUGAAUCUGCGUAUUCUGCUGUAUAUCUC | 0.14
34 | UAACAGAGGGCCACAGCAGAAGCGUUCACGUCGCAGCCCCUGUCACAUCCUGGUGAACCUGCGAAUUCUGCUGUAUAUCCC | 0.05
